# The other results are listed elsewhere or left out. The full chains were built here from the parent and the listed change. Inactive controls read about 0.05.
# B1: TEV protease; numbered along this chain (parent)
# chain: MGESLFKGPRDYNPISSSICHLTNESDGHTTSLYGIGFGPFIITNKHLFRRNNGTLVVQSLHGVFKVKDTTTLQQHLVDGRDMIIIRMPKDFPPFPQKLKFREPQREERICLVTTNFQTKSMSSMVSDTSCTFPSGDGIFWKHWIQTKDGQCGSPLVSTRDGFIVGIHSASNFTNTNNYFTSVPKNFMELLTNQEAQQWVSGWRLNADSVLWGGHKVFMVKPEEPFQPVKEATQL
# Variants of: B1
# Experiment: raw area under fraction-flipped curve 0-4 h after induction (AUC4h, not background-subtracted), DNA-recorder readout of cleavage of the substrate (dimensionless); higher = more cleavage of the substrate by the protease variant
# Settings: temperature: 34 °C; time window: 0-4 h after rhamnose induction
# Procedure: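 In vivo DNA recorder in E. coli TOP10(DE3) ΔrhaA at 34 °C. Each TEVp single-site mutant (parent TEVp 0) is paired with a single-site variant of the 7-mer TEVs (canonical ENLYFQ|S). The substrate sits between flexible linkers in a Bxb1-sfGFP-TEVs-SsrA fusion, so cleavage stabilises Bxb1 and speeds flipping of a recombination array, read by NGS. The value is the raw area under the fraction-flipped curve over 0-4 h after rhamnose induction (AUC4h), with ≥20 reads per time point. It is not background-subtracted; inactive controls average about 0.047.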
# 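Note: Bxb1 expression induced with 0.2% (w/v) L-rhamnose at OD600 near 0.5, cultures sampled hourly, flipped fraction per protease–substrate barcode pair counted by paired-end Illumina sequencing.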
variant,measurement,value
MGESLFKGPRDYNPISSSICHLTNESDGRTTSLYGIGFGPFIITNKHLFRRNNGTLVVQSLHGVFKVKDTTTLQQHLVDGRDMIIIRMPKDFPPFPQKLKFREPQREERICLVTTNFQTKSMSSMVSDTSCTFPSGDGIFWKHWIQTKDGQCGSPLVSTRDGFIVGIHSASNFTNTNNYFTSVPKNFMELLTNQEAQQWVSGWRLNADSVLWGGHKVFMVKPEEPFQPVKEATQL [H29R],area with substrate ANLYFQS,0.0588
same,area with substrate CNLYFQS,0.0684
same,area with substrate DNLYFQS,0.0728
same,area with substrate FNLYFQS,0.0567
same,area with substrate HNLYFQS,0.083
same,area with substrate LNLYFQS,0.0666
same,area with substrate NNLYFQS,0.003
same,area with substrate PNLYFQS,0.0532
same,area with substrate SNLYFQS,0.062
same,area with substrate TNLYFQS,0.0486
same,area with substrate WNLYFQS,0.0628
same,area with substrate YNLYFQS,0.0618
MGESLFKGPRDYNPISSSICHLTNESDGHTTSLYGIGFGPFIITNKHLFRRNNGTLVVQSLHGVFKVKDTTTLQQHLVDGRDMIIIRMPKDFPPFPQKLKFREPQREERICLVTTNFQTKSMSSMVSDTSCTFPSGDGIFWKHWIQTKDGQCGSPLVSTRDGFIVGIHTASNFTNTNNYFTSVPKNFMELLTNQEAQQWVSGWRLNADSVLWGGHKVFMVKPEEPFQPVKEATQL [S169T],area with substrate ANLYFQS,0.0514
same,area with substrate CNLYFQS,0.0697
same,area with substrate DNLYFQS,0.08
same,area with substrate FNLYFQS,0.0526
same,area with substrate GNLYFQS,0.0685
same,area with substrate HNLYFQS,0.0546
same,area with substrate KNLYFQS,0.0666
same,area with substrate LNLYFQS,0.0573
same,area with substrate MNLYFQS,0.071
same,area with substrate NNLYFQS,0.064
same,area with substrate PNLYFQS,0.0601
same,area with substrate QNLYFQS,0.0553
same,area with substrate TNLYFQS,0.064
same,area with substrate WNLYFQS,0.0581
same,area with substrate YNLYFQS,0.0641
MGESLFKGPRDYNPISSSICHLTNESDGHTTSLYGIGFGPFIITNKHLFRRNNGTLVVQSLHGVFKVKDTCTLQQHLVDGRDMIIIRMPKDFPPFPQKLKFREPQREERICLVTTNFQTKSMSSMVSDTSCTFPSGDGIFWKHWIQTKDGQCGSPLVSTRDGFIVGIHSASNFTNTNNYFTSVPKNFMELLTNQEAQQWVSGWRLNADSVLWGGHKVFMVKPEEPFQPVKEATQL [T71C],area with substrate ANLYFQS,0.0855
same,area with substrate CNLYFQS,0.0475
same,area with substrate DNLYFQS,0.0708
same,area with substrate FNLYFQS,0.0648
same,area with substrate HNLYFQS,0.0685
same,area with substrate MNLYFQS,0.0729
same,area with substrate PNLYFQS,0.0508
same,area with substrate TNLYFQS,0.0631
same,area with substrate VNLYFQS,0.0611
same,area with substrate YNLYFQS,0.0394
MGESLFKGPRDYNPISSSICWLTNESDGHTTSLYGIGFGPFIITNKHLFRRNNGTLVVQSLHGVFKVKDTTTLQQHLVDGRDMIIIRMPKDFPPFPQKLKFREPQREERICLVTTNFQTKSMSSMVSDTSCTFPSGDGIFWKHWIQTKDGQCGSPLVSTRDGFIVGIHSASNFTNTNNYFTSVPKNFMELLTNQEAQQWVSGWRLNADSVLWGGHKVFMVKPEEPFQPVKEATQL [H21W],area with substrate ANLYFQS,0.0751
same,area with substrate CNLYFQS,0.0623
same,area with substrate DNLYFQS,0.0832
same,area with substrate FNLYFQS,0.0503
same,area with substrate GNLYFQS,0.0573
same,area with substrate HNLYFQS,0.0561
same,area with substrate INLYFQS,0.0664
same,area with substrate KNLYFQS,0.0588
same,area with substrate LNLYFQS,0.022
same,area with substrate MNLYFQS,0.0614
same,area with substrate PNLYFQS,0.0598
same,area with substrate QNLYFQS,0.0694
same,area with substrate SNLYFQS,0.061
same,area with substrate TNLYFQS,0.0683
same,area with substrate VNLYFQS,0.0831
same,area with substrate WNLYFQS,0.0762
same,area with substrate YNLYFQS,0.061
MGESLFKGPRDYNPISSSICHLTNESDGHTTSLYGIGFGPFIITNKHLFRRNNGTLVVQSLHGVFKVKDTTTLQQHLVDGRDMIIIRMPKDFPPFPQKLKFREPQREERICLVTTNFQTKSMSSMVSDTSCTFPSGDGIFWKHWIQTKDGQCGSPLVSTRDGFIVGIHSASNFTNTNNYFTSVPKLFMELLTNQEAQQWVSGWRLNADSVLWGGHKVFMVKPEEPFQPVKEATQL [N186L],area with substrate ANLYFQS,0.0672
same,area with substrate CNLYFQS,0.0635
same,area with substrate DNLYFQS,0.0657
same,area with substrate FNLYFQS,0.0685
same,area with substrate HNLYFQS,0.0571
same,area with substrate INLYFQS,0.0608
same,area with substrate PNLYFQS,0.0371
same,area with substrate QNLYFQS,0.0747
same,area with substrate RNLYFQS,0.0425
same,area with substrate SNLYFQS,0.0527
same,area with substrate TNLYFQS,0.0866
same,area with substrate WNLYFQS,0.049
MGESLFKGPRDYNPISSSICHLTNESDGHTTSLYGIGFGPFIITNKHLFRRNNGTLVVQSLHGVFKVKDTTTLQQHLVDGRDMIIIRMPKDFPPFPQKLKFREPQREERICLVTTNFQTKSMSSMVSDTSCTFPSGDGIFWKHWIQTKDGQCGSPLVSTRDGFIVGIHSASNFTNTNNYFTSVPKNFMELLTNQEAGQWVSGWRLNADSVLWGGHKVFMVKPEEPFQPVKEATQL [Q197G],area with substrate ANLYFQS,0.0693
same,area with substrate CNLYFQS,0.0849
same,area with substrate DNLYFQS,0.0884
same,area with substrate FNLYFQS,0.174
same,area with substrate INLYFQS,0.052
same,area with substrate KNLYFQS,0.0687
same,area with substrate LNLYFQS,0.0633
same,area with substrate MNLYFQS,0.055
same,area with substrate PNLYFQS,0.062
same,area with substrate SNLYFQS,0.0573
same,area with substrate TNLYFQS,0.0599
same,area with substrate VNLYFQS,0.0681
same,area with substrate WNLYFQS,0.0593
same,area with substrate YNLYFQS,0.0601
MGESLFKGPRDYNPISSSICHLTNESDGHTTSLYGIGFGPFIITNKHLRRRNNGTLVVQSLHGVFKVKDTTTLQQHLVDGRDMIIIRMPKDFPPFPQKLKFREPQREERICLVTTNFQTKSMSSMVSDTSCTFPSGDGIFWKHWIQTKDGQCGSPLVSTRDGFIVGIHSASNFTNTNNYFTSVPKNFMELLTNQEAQQWVSGWRLNADSVLWGGHKVFMVKPEEPFQPVKEATQL [F49R],area with substrate ANLYFQS,0.0577
same,area with substrate CNLYFQS,0.0441
same,area with substrate DNLYFQS,0.0484
same,area with substrate FNLYFQS,0.0506
same,area with substrate GNLYFQS,0.0574
same,area with substrate HNLYFQS,0.0499
same,area with substrate KNLYFQS,0.0657
same,area with substrate LNLYFQS,0.0533
same,area with substrate NNLYFQS,0.0431
same,area with substrate PNLYFQS,0.0558
same,area with substrate QNLYFQS,0.0738
same,area with substrate SNLYFQS,0.0655
same,area with substrate TNLYFQS,0.0615
same,area with substrate VNLYFQS,0.0503
same,area with substrate WNLYFQS,0.0572
same,area with substrate YNLYFQS,0.0526
MGESLFKGPRDYNPISSSICHLTNESDGHTTSLYGIGFGPFIITNKHLFRRNNGTLVVQSLHGVFKVKDTTTLQQHLVDGRDMIIIRMPKDFPPFPQKLKFREPQREERICLVTTDFQTKSMSSMVSDTSCTFPSGDGIFWKHWIQTKDGQCGSPLVSTRDGFIVGIHSASNFTNTNNYFTSVPKNFMELLTNQEAQQWVSGWRLNADSVLWGGHKVFMVKPEEPFQPVKEATQL [N116D],area with substrate ANLYFQS,0.0741
same,area with substrate CNLYFQS,0.0742
same,area with substrate DNLYFQS,0.0825
same,area with substrate GNLYFQS,0.0822
same,area with substrate HNLYFQS,0.0614
same,area with substrate INLYFQS,0.0551
same,area with substrate KNLYFQS,0.0666
same,area with substrate LNLYFQS,0.0658
same,area with substrate MNLYFQS,0.0578
same,area with substrate NNLYFQS,0.0975
same,area with substrate QNLYFQS,0.0726
same,area with substrate VNLYFQS,0.0748
same,area with substrate WNLYFQS,0.0567
same,area with substrate YNLYFQS,0.06
MGESLFKGPRDYNPISSSICHLTNESDGHTTSLYGIGFGPFIITNKHLFRRNNGTLVVQSLHGVFKVKDTTTLQQHLVDGRDMIIIRMPKDFPPFPQKLKFREPQREERICLVTTNFQTKSMSSMVSDTSCTFPSGDGIFWKHWIQTKDGQCGSPLVSTRDGFIVGIHSASNFTNTNNYCTSVPKNFMELLTNQEAQQWVSGWRLNADSVLWGGHKVFMVKPEEPFQPVKEATQL [F180C],area with substrate ANLYFQS,0.0662
same,area with substrate CNLYFQS,0.0581
same,area with substrate DNLYFQS,0.0874
same,area with substrate FNLYFQS,0.0406
same,area with substrate HNLYFQS,0.057
same,area with substrate MNLYFQS,0.0629
same,area with substrate NNLYFQS,0.0903
same,area with substrate QNLYFQS,0.0406
same,area with substrate RNLYFQS,0.033
same,area with substrate SNLYFQS,0.0738
same,area with substrate TNLYFQS,0.0736
same,area with substrate YNLYFQS,0.0503

# Source: the supplement of paper PMC12217912
